The RNAGym collection of RNA variant scans (doi:10.1073/pnas.2313332121)
Variants at the background level are over-represented here.

B1: TPR 5TU (parent)
chain: GGAUCUUCUCGAUCUAACAAAAAAGACAAAUCUGCCACAAAGCUUGAGAGCAUCUUCGGAUGCAGAGGCGGCAGCCUUCGGUGGCGCGAUAGCGCCAACGUUCUCAACUAUGACACGCAAAACGCGUGCUCCGUUGAAUGGAGUUUAUCAUG

Variants of: B1
Experiment: polymerase ribozyme fitness, log enrichment relative to wild type (log ratio); higher = more active; in vitro selection for triplet polymerase activity
Method in brief: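 Mutant libraries were PCR-built and transcribed for each subunit of a heterodimeric triplet polymerase ribozyme and selected for one round in triplicate at −7 °C, frozen, before gel excision of extended constructs and streptavidin-bead capture. Input and output libraries were Illumina-sequenced, keeping genotypes with ≥10 input reads and ≥1 read per output. Fitness is a logarithmic ratio of genotype to wild-type enrichment, in base 2, using inverse-variance-weighted replicate averages.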

Variant | polymerase ribozyme fitness (log ratio)
A21G C27A G70C A91U | ≤ -4.2
A21C G84A C95A U104C | -0.91
A21C A41U C57U A119U U134A U144A | -4.17
A20G C57U G62C G136U | -3.44
A20U U82A C93U U145G | -2.69
A20C C35U A97G | -0.284
A19U U31A C93U C108A G141U | ≤ -4.2
A20C U53A U56A G70A C72G C87A G152A | ≤ -4.2
A20U G46C U56A C96U U135C A147G | ≤ -4.2
A21C A22C C36A G48C A91U C99G | ≤ -4.2
A20U A24C A39U U53A C57G C96U A106U G117A | ≤ -4.2
A20U U61A | -2.43
A21G A37U G59A A60C | -3.22
A20G C85U G94U C95G C125U | -3.59
A20U C72U C85A U134C A150C | ≤ -4.2
A20C A37C U45A G88U C96A U102C C103A U109C A120G C125A | ≤ -4.2
A21G G92C C108A A120G A122U C129U | ≤ -4.2
A20U A49C C57U A115G | ≤ -4.2
A21C C32A A137U | ≤ -4.2
A21C U44G G65C G94A C99G | ≤ -4.2
A21U A39U C76A A91U C103A | ≤ -4.2

Variant | polymerase ribozyme fitness (log ratio)
A19U G59A G86U A91C C93U A142U U144G | ≤ -4.2
A20U A29U C43U A47G A49C C54G C95U C105A U145G A147G | ≤ -4.2
A21C A40U C93A | -1.84
A20U A41U G83U A89C C96G A150U | -2.06
A21G A47G G84U C123A A142C | ≤ -4.2
A20G U55A U56A A73G U101A A107U | ≤ -4.2
A21G A22C A23U U44A U109A G124C G126U | ≤ -4.2
A20C A73G C87G C114U G141A | ≤ -4.2
A21G G34U U55C U56G C87A G126C U144A | ≤ -4.2
A20C A21U C51A G86U C95A G133C | ≤ -4.2
A21G C27A | -3.89
A21C G59U C79G U82A | ≤ -4.2
A20C U31A A49C A60C G83A G92C | ≤ -4.2
A20G C38U A47C A60G C93U A106G G128U | ≤ -4.2
A20G G81A C96U C114G U127G A142C | ≤ -4.2
A19U G58A C105A U111G | ≤ -4.2
A20C C35U U61G U77C C95A C99U A121G | ≤ -4.2
A21G G25A U56A C93U A119G A120C U146C | -3.11
A19U G59A G83U C95A C132U G136U G141A | ≤ -4.2
A20C U53A U56A G70A C72G C87A | ≤ -4.2
A20C A91C C95U A115C | ≤ -4.2

Variant | polymerase ribozyme fitness (log ratio)
A20C A28G U82G G84U A110C | ≤ -4.2
A20G A22U A40G G48U A73U C85U C116G | ≤ -4.2
A21C A91U | ≤ -4.2
A21U A29U U33G C35U G81U G84A | -4.1
A21G U55A C57A C93A C105A A138C | ≤ -4.2
A21G C36G A47C A120C G133A | ≤ -4.2
A21G A22U G25U A49G C57A G83C C129U | ≤ -4.2
A20G C36G A39U C54A | ≤ -4.2
A20U A23G G88A C99G C149G | ≤ -4.2
A20G A91U | ≤ -4.2
A19U U44A | ≤ -4.2
A21C A24U C32A G80A C93U C95A | ≤ -4.2
A21G U55A C96U G117A | 0.86
A20G C36G G48C A66G C85A G88A | ≤ -4.2
A20U A89U | -2.12
A20U U56A C85G A91U | ≤ -4.2
A20C G42A C54U C75G G86U A113G A115G | ≤ -4.2
A20C C51A G67U C95U A120G U139A | ≤ -4.2
A21C G94C C116U | 0.209
A21C U77A A98G C132A G143U | ≤ -4.2
A20U G58C U77A C95U C105U | ≤ -4.2

Variant | polymerase ribozyme fitness (log ratio)
A20C A22U G58A U77C C96G | ≤ -4.2
A21C G68C A142G | -4.13
A21U A29U C63U A73G C76A U135C | ≤ -4.2
A21G G71A U146G | ≤ -4.2
A20U A64C G84U | ≤ -4.2
A21G A106C | -0.348
A20G A22G A41G G50A G58A C75A | ≤ -4.2
A20U C35U G81U C93A G94U | ≤ -4.2
A21C A91U A106G | ≤ -4.2
A21G A30U A60C U77G C85A G94U G117U A150G | ≤ -4.2
A20C A23C C51U G83U C85U C99U C118G | ≤ -4.2
A20G G84A U151G | ≤ -4.2
A20C C63U A64C | ≤ -4.2
A21G A47C G81A G88A | ≤ -4.2
A21G G92C | 0.365
A20U U55A U77C C96A G124C | ≤ -4.2
A21C G67C G84A U139A G140U | ≤ -4.2
A20C U55G C57U A120C | -0.73
A20U U44G G46A G59C C96A A115C | ≤ -4.2
A20G G59A U77A C95U G117U C118G A122U | ≤ -4.2
A21C A28U A30U A47G | ≤ -4.2
